# The supplement of paper PMC3334620
# Over roughly 33,000 sequences, “E-score (-0.5 to 0.5)” has its median near -0.035; the highest 2% begin near 0.35. The list shows a part of the results.
# Target: T1, Pdr3 (UniProt P33200)
# T1 sequence: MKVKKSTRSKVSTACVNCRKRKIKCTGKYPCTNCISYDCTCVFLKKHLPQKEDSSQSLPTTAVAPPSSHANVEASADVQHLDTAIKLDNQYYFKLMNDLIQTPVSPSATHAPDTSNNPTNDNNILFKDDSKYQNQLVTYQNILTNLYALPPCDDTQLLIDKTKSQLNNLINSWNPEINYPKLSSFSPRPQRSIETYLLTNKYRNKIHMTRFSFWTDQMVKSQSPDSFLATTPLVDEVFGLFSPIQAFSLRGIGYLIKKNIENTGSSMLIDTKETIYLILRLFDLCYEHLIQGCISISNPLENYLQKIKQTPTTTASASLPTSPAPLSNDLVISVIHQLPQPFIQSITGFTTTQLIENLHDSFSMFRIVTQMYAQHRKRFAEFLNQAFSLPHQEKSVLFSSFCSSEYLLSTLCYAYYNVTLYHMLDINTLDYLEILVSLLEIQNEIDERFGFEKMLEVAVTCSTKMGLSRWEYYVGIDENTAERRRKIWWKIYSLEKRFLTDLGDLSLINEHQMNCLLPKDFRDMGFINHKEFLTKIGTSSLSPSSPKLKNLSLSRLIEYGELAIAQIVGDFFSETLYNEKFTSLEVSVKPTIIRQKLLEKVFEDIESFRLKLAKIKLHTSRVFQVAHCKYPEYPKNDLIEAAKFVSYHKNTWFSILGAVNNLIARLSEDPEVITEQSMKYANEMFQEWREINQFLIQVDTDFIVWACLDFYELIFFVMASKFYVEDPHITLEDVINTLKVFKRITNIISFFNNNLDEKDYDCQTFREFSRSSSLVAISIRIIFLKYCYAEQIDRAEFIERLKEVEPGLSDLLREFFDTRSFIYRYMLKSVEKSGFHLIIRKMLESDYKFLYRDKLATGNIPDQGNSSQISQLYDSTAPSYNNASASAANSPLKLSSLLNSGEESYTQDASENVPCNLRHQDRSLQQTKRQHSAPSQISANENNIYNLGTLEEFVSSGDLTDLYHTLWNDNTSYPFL
# Assay: PBM E-score (8-mer binding enrichment) (E-score (-0.5 to 0.5)); higher = stronger / more preferred TF binding; most listed sequences are background and not binding sites
# Details: protein concentration: 200 nM; construct: GST-full length
# Procedure, shortened: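 Universal all-10-mer Agilent arrays, double-stranded by primer extension on fresh or once-stripped slides, were probed with about 100-200 nM GST-tagged yeast transcription factors made by PURExpress. Fluorescent anti-GST detected bound protein, and masliner normalised the scans. E-scores from the Universal PBM Analysis Suite were given to each ungapped eight-base word pooled with its reverse complement.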
row,Sequence,PBM E-score
1,ACGGGCTC,-0.0651
2,AGGCACAA,-0.13
3,AGAGATCT,-0.248
4,GAACCGTC,0.0271
5,CAGAGCTC,-0.0945
6,GCGCGACA,0.255
7,GCACCAAC,0.00954
8,TACGAACA,-0.148
9,AAGCCTCT,-0.332
10,AAGGTGAG,-0.0473
11,AAGCTGCA,-0.163
12,CAAATTGA,-0.0834
13,CCCGCAAC,0.299
14,TAGATGAA,-0.109
15,ACGCTAGT,-0.0553
16,CGGTGGCC,0.167
17,AAAAACTG,-0.221
18,CGGCAGGA,0.164
19,GAGGCTAA,-0.0878
20,CAACCTCA,-0.23
21,CGGAAGAA,0.378
22,CTACTGCC,-0.0603
23,GCCCTTGA,-0.14
24,ACATCTGC,-0.148
25,GGTGTCGA,-0.101

row,Sequence,PBM E-score
1,CTGAGGAC,-0.0292
2,ATCGAACG,-0.0659
3,AAATATGA,-0.0267
4,ATGACGCC,-0.138
5,ACCTACCT,-0.0124
6,CACGGTTC,-0.127
7,CCGAATTA,0.168
8,AAGCACCC,-0.0948
9,AGAACAGG,-0.128
10,CATAATCC,-0.106
11,TTGTTAAA,-0.0776
12,GCGCAGTA,0.054
13,GATCGTCC,0.177
14,ACTACGTC,-0.156
15,GAATGGGA,-0.0226
16,ATATCTTC,0.196
17,CTTGCCCC,-0.0846
18,AAGGAAAA,0.0469
19,CCAGTATC,-0.0171
20,AAGGCGGC,-0.112
21,AGGGCAAT,0.173
22,ACAACGCG,0.0944
23,GAGTGTAA,-0.237
24,AGGGAACC,-0.00025
25,CGATCCTA,-0.0469

row,Sequence,PBM E-score
1,GAGCTCGC,0.218
2,ACCAGATC,0.0295
3,CATGACCA,-0.0692
4,ATAATCAT,0.0794
5,CCCGTGCG,0.32
6,GGCTAGCA,-0.139
7,AACTTAAT,0.115
8,ACATAGTA,-0.0655
9,AACATATG,-0.141
10,AGGGTAAA,0.00883
11,CCAATCAA,-0.0397
12,CTATGCGA,-0.153
13,CCTTGAGA,-0.117
14,CGGTAGGA,0.0361
15,GACCCTGC,-0.00937
16,AGGGATAA,-0.189
17,GCCGCCGA,0.292
18,ATTCACGA,-0.185
19,ATTTGTTG,-0.0909
20,ACTAGTCT,-0.25
21,AATGGAGA,-0.0416
22,AGGCAAAG,-0.138
23,ATCTACAT,0.00308
24,GGGTACGA,-0.033
25,CCCACTTC,0.0717

row,Sequence,PBM E-score
1,ATATCCAG,-0.0651
2,ATAATCCA,0.0156
3,ATAGGGAG,-0.16
4,CCGGTCGA,0.167
5,AAACATAA,-0.0722
6,TAAACATA,0.0249
7,GCACCGGC,0.146
8,TACAAGTA,-0.187
9,ATCCTACG,-0.166
10,CGTGCCGA,0.322
11,AGGGCGTA,-0.0788
12,CAGCTACA,-0.122
13,GCCTTGCC,-0.0326
14,GACTAAGC,-0.0374
15,AATCTGAG,-0.181
16,CTTTAAAA,-0.0735
17,GTGCCCAA,-0.0202
18,GAGTATAC,-0.139
19,CAATACGA,-0.107
20,ACGGTCTG,-0.0213
21,ACCATTCG,-0.108
22,CGTAAGTC,0.00111
23,ATTGCAAA,-0.0429
24,CGTTAATA,0.171
25,ATTAAGTA,-0.0128

row,Sequence,PBM E-score
1,GGGACAAC,0.029
2,CGGTTAGC,-0.074
3,CAATCAGG,-0.0436
4,TATGACAA,0.0342
5,CAAGCTTA,0.0749
6,GACTGTCC,0.104
7,GCCGGCCC,0.282
8,GGGAAAAC,0.0253
9,ACTACGCT,-0.227
10,TGCATCCA,-0.0138
11,TCAGGGCA,-0.0916
12,CTACGCCA,-0.222
13,CCGAAGTC,0.0487
14,GCACACCC,-0.149
15,GGTAAGCA,-0.186
16,ACGGGTTG,0.154
17,ATGGGCGC,0.0452
18,TCTGTTAA,-0.196
19,AAACCCCT,-0.162
20,ATTAGAAC,0.101
21,ACATGAGA,-0.0615
22,AGCACGCA,-0.228
23,AACAAACA,-0.0734
24,GCCAACGA,-0.0382
25,AAATTTAG,0.0897

row,Sequence,PBM E-score
1,CCGGAGCG,0.37
2,CAACGGGC,0.0498
3,CCTGCGTC,-0.107
4,GATGTTCA,-0.0286
5,GACGGTCC,0.173
6,ACAAGTTG,0.0483
7,GATTGTAA,0.00517
8,AAACGGAG,0.184
9,CAACTTAG,0.191
10,CTGTTATA,-0.0807
11,ACGACGAG,-0.263
12,AAGCTATT,-0.112
13,GGATAACA,0.149
14,ACGTTCAA,-0.145
15,AGCATGTC,0.045
16,ATATTAGG,-0.0801
17,AGGATGGA,0.0183
18,AGTACCCC,-0.0187
19,ATTGCAAT,0.208
20,ATCGACAA,0.101
21,TAACGACA,-0.132
22,GTAGCTCA,-0.141
23,ATCAAAGA,-0.143
24,GATTCGGC,0.269
25,CCCTAGAG,-0.0655

row,Sequence,PBM E-score
1,GCCTATCC,-0.0464
2,ATTTGGGA,-0.0863
3,ACGTGCCT,-0.202
4,ATCTTCGG,0.146
5,GTTACAAC,-0.0307
6,AAACTAAT,0.146
7,ATCCCATC,-0.0699
8,AGCCTGCG,-0.108
9,GTCCCCAC,-0.0465
10,GAGTGGTA,-0.08
11,ATGTCAAT,0.0385
12,AATCGAAC,-0.114
13,TATAGGAA,-0.134
14,GACTCACC,-0.126
15,GCCACTCA,-0.0519
16,CTTCGAAC,0.0998
17,GTATCAGA,-0.0254
18,GGACTGCA,-0.177
19,CAGTTGTC,-0.0452
20,GACTAGAA,-0.203
21,CTTGGGTA,-0.0381
22,ATCGGCGG,0.341
